Experimental data as given in PubChem BioAssay AID686979 (National Center for Advancing Translational Sciences (NCATS), 2013).
Several values for one entry are separate records, joined by “and”; a condition that tells them apart may be missing. Equal values may be shown once. In all, about 420,000 compounds went through this assay and about 50,000 (12%) were called active. This list was built around the results that the source calls inconclusive (neither active nor inactive); the mix of calls is not that of the screen. The call rests on the fitted dose curve; in most records, active means well fitted inhibition curve with a large enough effect; inconclusive means small, poorly fitted or top-dose-only effect; inactive means flat fitted curve, though single readings scatter. No potency is given beside an inconclusive call; the fits are too rough.

test: qHTS for Inhibitors of human tyrosyl-DNA phosphodiesterase 1 (TDP1): qHTS in cells in presence of CPT; conditions: chicken DT40 Tdp1-/-;hTDP1 cells + 20 nM CPT, ATP luminescence, 48 h; series mostly up to 46.2 µM; further: nearly all actives have a fitted effect of over 55% in size
Method in brief: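 Chicken DT40 Tdp1-/- cells complemented with human TDP1, 400 cells/well, exposed to compounds plus 20 nM camptothecin for at least 48 h at 37 C; viability read as ATP content by CellTiter-Glo luminescence.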
Potency means the concentration at half of the fitted maximal effect; tags describe the fitted curve by direction and shape.

Compound	Potency
Cc1nnc(SCC(=O)N(C2CCCCC2)C2CCS(=O)(=O)C2)n1N (stereo unspecified)	inactive
Cc1ccc(NC(=O)CN2c3cccc4cccc(c34)S2(=O)=O)cc1S(=O)(=O)N1CCOCC1	inconclusive [inhibitor, partial curve, poor fit]
CCNC(=O)NC(=O)C(C)Sc1ncc(C(F)(F)F)cc1Cl (stereo unspecified)	inactive
C[C@H](CO)N1C[C@H](C)[C@@H](CN(C)Cc2ccccc2)Oc2c(NC(=O)Cc3ccccc3)cccc2C1=O	active: 14.6 µM
Cc1nn(CCc2nc(-c3ccco3)cs2)c2[nH]c(=O)cc(C(F)(F)F)c12	inconclusive [inhibitor, single point]
Cn1c(SCc2nc3ccccc3[nH]2)nnc1-c1cccs1	inactive
COc1cc2c(cc1OC)-c1cc(NC3CCCCCCC3)nc(=O)n1CC2	inconclusive [inhibitor, single point]
CC(=O)OC1C(N2CCCCC2)c2c(ccc(/C=C/C(=O)N3CCCCC3)c2O)OC1(C)C (stereo unspecified)	inactive
O=C(CNc1cccc2ccccc12)N/N=C/c1ccc(C(=O)O)cc1	inactive
Nc1nc2[nH]cc(CCc3ccc(C(=O)N[C@@H](CCC(=O)O)C(=O)O)cc3)c2c(=O)[nH]1	active: 141 nM and active: 47.3 nM
Cc1ccc2nc(Cl)c(/C=N/Nc3nc(C)cc(C)n3)c(=O)n2c1	inconclusive [inhibitor, single point]
NNC(=O)c1ccc(CN2C(=O)c3cccc4cccc2c34)cc1	inconclusive [inhibitor, single point]
C=CC(=O)Nc1cccc(Nc2nc(N[C@H]3CC[C@H](N(C)C)CC3)nc3c2ncn3C(C)C)c1	active: 0.146 µM
COc1ccccc1CC(=O)Nc1ccc(-c2noc(COc3ccc(Br)cc3)n2)cc1	inactive
CN(C)C=Nc1ncc2c3ccccc3n(CCN(C)C)c2c1C#N	active: 20.6 µM
CC1(C)Oc2ccc(NC(=O)c3ccco3)cc2O1	inconclusive [inhibitor, partial curve, poor fit]
O=C1CCC2c3[nH]c4ccccc4c3CCN12 (stereo unspecified)	inactive
Cn1c(CCNC(=O)c2cc(COc3ccc(F)c(F)c3)on2)nc2ccccc21	inconclusive [inhibitor, single point]
Cc1ccc(-c2csc(NC(=O)c3ccc(S(=O)(=O)N4CCc5ccccc54)cc3)n2)cc1	inactive
Cc1cccnc1NC(=O)Nc1cccc2ccccc12	inactive
Cc1ccccc1N1CCN(C2=NC(=O)/C(=C\c3cccs3)S2)CC1	inconclusive [inhibitor, single point]
COC(=O)[C@]12CCCCC=C1N(Cc1ccccc1)C(=O)[C@H](CC(=O)NCc1ccccc1)C2	inconclusive [inhibitor, single point]
CC(C)c1ccccc1NC(=O)C1CCCN(C(=O)c2ccc(Cl)cc2)C1 (stereo unspecified)	inconclusive [inhibitor, single point]

Compound	Potency
Cc1cccc(C)c1NC(=O)CN(C)C(=O)c1ccc(-c2cccc(C(F)(F)F)c2)o1	inconclusive [inhibitor, single point]
COc1ccc(CCNC(=O)/C=C/c2ccc(OC)c(S(=O)(=O)N3CCOCC3)c2)cc1	inconclusive [inhibitor, single point]
CC(NC(=O)CN(C)Cc1cccc(F)c1)c1ccccc1 (stereo unspecified)	inactive
Nc1ccn(C2OC(CCl)C(O)C2O)c(=O)n1 (stereo unspecified)	active: 2.59 µM
COCCNC(=O)COC(=O)c1ccc(OCC(=O)Nc2ccccc2OC)c(OC)c1	inconclusive [inhibitor, single point]
CN(C)CCCNc1ncc(C(F)(F)F)cc1Cl	inactive
Cc1ccc(OCC(=O)Nc2ccc(OCc3cc(=O)n4c(C)csc4n3)cc2)cc1C	inactive
O=S(=O)(Nc1ncccn1)c1ccc(NC(=S)N2CCN(c3cccc(C(F)(F)F)c3)CC2)cc1	inactive
COc1cc(OC)c(-n2cc(-c3ccc(Cl)cc3)[nH]c2=O)cc1Cl	inconclusive [inhibitor, single point]
Cc1ccc(C=O)c([B-](F)(F)F)c1	inconclusive [inhibitor, single point]
CCc1ccc(C(=O)O)cc1	inactive
Cc1ccc(NS(=O)(=O)c2ccc(-c3csc(C)n3)s2)c(C)c1	inconclusive [inhibitor, partial curve, poor fit]
O=C(Cc1n[nH]c(=O)[nH]c1=O)N/N=C/CCc1ccccc1	inactive
CCN(CC)S(=O)(=O)c1c(OC)cc(C)c(Cl)c1C	inconclusive [inhibitor, single point]
CCN1C(=NCc2ccc(OC)cc2)N[C@@H](c2ccccc2)C(C(=O)OC)=C1C	inconclusive [inhibitor, single point]
CNc1ccc(C(=O)N2CCN(S(=O)(=O)c3ccc4c(c3)OCCCO4)CC2)cc1[N+](=O)[O-]	inconclusive [inhibitor, full curve, poor fit]
CCc1cccc(NC(=O)CSc2nc(C)cs2)c1	inactive
CCOc1ccccc1Nc1sc(C(=O)c2ccccc2)c(N)c1C(=O)Nc1ccc(F)cc1	inconclusive [inhibitor, single point]
CCN(CC)S(=O)(=O)c1ccc(S(=O)(=O)N(Cc2ccccn2)Cc2ccco2)cc1	inconclusive [inhibitor, single point]
COc1ccc(CNC(=O)C2(C)Cc3ccccc3C(=O)O2)cc1 (stereo unspecified)	inactive
O=C(Nc1cccc2ncccc12)c1cc([N+](=O)[O-])ccc1Cl	inconclusive [inhibitor, single point]
Cc1occc1C(=O)Nc1cc(S(=O)(=O)N2CCOCC2)ccc1OC(C)C	inconclusive [inhibitor, full curve, poor fit]
CC(=O)Nc1ccc(OCC(O)Cn2c3ccccc3c3ccccc32)c(C)c1 (stereo unspecified)	inconclusive [inhibitor, single point]
